Assay results from PubChem BioAssay AID485364 (National Center for Advancing Translational Sciences (NCATS), 2010).
“And” between values parts separate entries of the source, which are not always exact repeats. Equal entries are not always repeated. Among all 360,000 compounds or so, about 11,000 (3.1%) were called active. The inconclusive results got no clear call from the source; some entries with a clear call stand among them for comparison. Calls come from the whole dose curve; as a rule, active = well fitted inhibition curve with a large enough effect; inconclusive = small, poorly fitted or top-dose-only effect; inactive = no such curve, though single readings can be large or run the other way. Potencies beside an inconclusive call are fits to weak or partial responses and may not hold up.

Target: Schistosoma mansoni thioredoxin glutathione reductase (TGR) (UniProt Q962Y6)
Assay: qHTS Assay for the Inhibitors of Schistosoma Mansoni Peroxiredoxins; note: nearly all actives have a fitted effect of over 60% in size
Settings: purified TGR, DTNB reduction, TNB absorbance 405 nm; activity change, negative = inhibition: at 114 µM (top of the series) unless noted
Outline: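 TGR 20 nM + NADPH 100 uM (dispensed conc.), cpd preinc 15 min RT; start with NADPH (500 uM addition) then DTNB (15 mM addition). Kinetic TNB absorbance, 405 nm filter. Four-parameter Hill fit across titration.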
% is set by controls: 0 for no effect and ±100 for the full control effect; potency is the fitted concentration of half-maximal effect; tags give direction and shape of the fitted curve.

Compound	activity change, negative = inhibition	Potency
NC(=O)CC(NC(=O)c1cccc(Br)c1)c1ccc(N2CCN(c3ccc(F)cc3)CC2)c([N+](=O)[O-])c1 (stereo not drawn)	inactive: -2.59%	–
CC(NC(=O)Cn1ccc2cc(S(=O)(=O)N3CCCCCC3)ccc21)c1ccccc1 (stereo not drawn)	inactive: 1.88%	–
Clc1ccc(-n2ncc3c(NC4CCCC4)ncnc32)cc1	inactive: 5.42%	–
O=C(/C=C\NCC(=O)c1ccccc1)c1ccc2ccccc2c1	–	inconclusive: 50.1 µM [inhibitor, partial curve]
S=C(NCCc1ccccc1)Nc1ccccn1	–	inconclusive: 50.1 µM [inhibitor, partial curve, poor fit]
COC(=O)CN1C(=O)[C@H]2[C@@H](c3ccc(C)o3)N3C(=O)CN(Cc4ccc(-c5ccccc5)cc4)C(=O)[C@@]3(C)[C@H]2C1=O	–	active: 10 µM
COc1cccc(CNC(=O)CSC2=Nc3ccccc3N=C(c3ccc(F)cc3)C2)c1	inactive: 31.2%	–
CCc1ccc(NC(=O)c2nc(S(=O)(=O)Cc3ccccc3)ncc2Cl)cc1	–	active: 6.31 µM
CCN(c1ccc(NC(=O)COC(=O)/C=C/c2cccs2)cc1)C(C)C	inactive: -8.65%	–
Cc1ccc(C(=O)Nc2ccc3c(c2)nc2n3CCSC2)cc1	–	inconclusive: 22.4 µM [inhibitor, full curve, poor fit]
CCC(=O)N(CCCN(C)C)c1nc(-c2cc(OC)ccc2OC)cs1	inactive: 4.86%	–
COc1ccccc1Cn1c(C)nc2ccccc21	inactive: 16.6%	–
NCCSC1CC(=O)N(c2ccc(Cl)c(Cl)c2)C1=O (stereo not drawn)	–	active: 63.1 µM
COc1cc2cnc(-c3ccccc3)c(-c3cc(OC)c(OC)c(OC)c3)c2cc1OC	–	active: 3.16 µM
COc1ccc(CN2C(=O)NC(=O)/C(=C\c3cccc(OC)c3OC)C2=O)cc1	–	inconclusive: 0.631 µM [inhibitor, full curve, poor fit]
O=C(Nc1nc2n(n1)C(c1ccccc1)C=C(c1ccccc1)N2)c1ccco1 (stereo not drawn)	–	active: 1.78 µM
COc1cc(CNc2ccc3[nH]c(=O)[nH]c3c2)ccc1OCc1ccc(F)cc1Cl	–	inconclusive: 3.55 µM [inhibitor, full curve, poor fit]
O=C(CCS(=O)(=O)c1cc2c(cc1Cl)NC(=O)CO2)NCCc1ccccc1	–	inconclusive: 39.8 µM [inhibitor, single point] and inconclusive: 708 nM [inhibitor, full curve, poor fit]
COc1ccccc1S(=O)(=O)Cc1ccc(C(=O)NC2CCCCC2)o1	–	active: 39.8 µM
COc1ccccc1N1CCN(CCCCOc2ccc(C)cc2C)CC1	–	inconclusive: 35.5 µM [inhibitor, single point]
c1coc(-c2nc(-c3ccco3)c(-c3ccco3)nc2-c2ccco2)c1	–	active: 0.708 µM
Cc1ccc(/C=C2/C(=N)N3N=C(CC(=O)N4CCCC4)SC3=NC2=O)o1	–	inconclusive: 50.1 µM [inhibitor, partial curve]
O=C(NN1C(=O)C2C3C=CC(C4CC34)C2C1=O)c1cccc(Cl)c1 (stereo not drawn)	inactive: 2.09%	–
CCS(=O)(=O)Nc1ccc(C2=NN(C(=O)c3ccco3)C(c3ccco3)C2)cc1 (stereo not drawn)	–	inconclusive: 50.1 µM [inhibitor, partial curve]

Compound	activity change, negative = inhibition	Potency
Cc1nc(N2N=C(c3ccc(Cl)cc3)CC2c2ccco2)sc1C(=O)N(C)C (stereo not drawn)	–	inconclusive: 39.8 µM [inhibitor, partial curve]
O=C(NC(=S)Nc1cccc(O)c1)c1ccco1	–	active: 7.94 µM
COC(=O)c1ccsc1NC(=O)CCS(=O)(=O)c1ccc(Cl)cc1	–	inconclusive: 50.1 µM [inhibitor, partial curve]
O=C(c1cc(-c2ccco2)nn1-c1cccc(Cl)c1)N1CCCCC1	–	active: 7.08 µM
C=CCN(CC=C)C(=O)c1cc2ccccc2c(=O)o1	inactive: 19.9%	–
Cc1ccc2ccc(C(Nc3cccc(C(F)(F)F)c3)c3cccnc3)c(O)c2n1 (stereo not drawn)	–	active: 2.24 µM
O=C(c1ccc(Cl)c(S(=O)(=O)N2CCCCCC2)c1)N1CCN(c2ccc(O)cc2)CC1	–	inconclusive: 89.1 µM [inhibitor, partial curve]
Cn1ccc(=S)c2ccccc21	–	inconclusive: 31.6 µM [inhibitor, full curve]
Cc1cc(OC(C)C(=O)NCc2cccnc2)c2c3c(c(=O)oc2c1)CCC3 (stereo not drawn)	inactive: 1.54%	–
COc1ccccc1N1CCN(C(=O)C2CCN(S(=O)(=O)c3ccc4c(c3)CC(C)N4C(=O)C3CC3)CC2)CC1 (stereo not drawn)	inactive: -8.63%	–
COc1ccc(NC(=O)CN2CCCC(C)C2)c([N+](=O)[O-])c1 (stereo not drawn)	inactive: -2.16%	–
O=C(O)c1cc(S(=O)(=O)N2CCOCC2)c(Sc2ccccn2)cc1Sc1ccccn1	–	inconclusive: 100 µM [inhibitor, single point]
Cn1cc(C(=O)C(F)(F)F)c2ccccc21	inactive: 16.7%	–
CCN(CC)Cc1c(O)ccc2occ(C(=O)c3ccccc3)c12	inactive: -10%	–
O=CN(CCN(C=O)CN1CCCCC1)CN1CCCCC1	–	inconclusive: 1.58 µM [inhibitor, partial curve]
Cn1c(N)c(C(=O)CSc2nc(N)cc(N)n2)c(=O)n(C)c1=O	inactive: -0.0627%	–
CCOc1ccc(-n2c(O)cc(=O)[nH]c2=O)cc1	–	inconclusive: 0.708 µM [inhibitor, full curve, poor fit]
CCN1C(=O)[C@@H]2Cc3c([nH]c4ccccc34)C(c3cc(OC)c(OC)c(OC)c3)N2C1=S (stereo partly drawn)	–	inconclusive: 50.1 µM [inhibitor, partial curve]
NC(=O)CC(NC(=O)Cc1ccc(Br)cc1)c1ccc(NCC2CC2)c([N+](=O)[O-])c1 (stereo not drawn)	inactive: 2.5%	–
COc1cc(/C=C\C(=O)O)cc(S(=O)(=O)N2CCCCCC2)c1OC	–	inconclusive: 44.7 µM [inhibitor, partial curve]
O=C(CNC(=O)OCc1ccccc1)Oc1cc2oc(=O)cc(-c3ccccc3)c2cc1Cl	–	inconclusive: 39.8 µM [inhibitor, partial curve]
CCOc1ccc(Br)cc1/C(C)=N\NC1=NCCN1	inactive: -1.02%	–
COCCNC(=O)Cn1cc(S(=O)(=O)N2CCN(c3ccccc3F)CC2)c2ccccc2c1=O	inactive: -2.32%	–
C=CCc1cc(C=C2C(=O)NC(=O)NC2=O)cc(OC)c1OCc1ccc(C(=O)O)cc1	–	inconclusive: 0.562 µM [inhibitor, full curve, poor fit]
